Sequences and labels used below:
B1: PhoQ; a variant is named by its letters at X, in order, P23837 (parent)
chain: MKKLLRLFFPLSLRVRFLLATAAVVLVLSLAYGMVALIGYSVSFDKTTFRLLRGESNLFYTLAKWENNKLHVELPENIDKQSPTMTLIYDENGQLLWAQRDVPWLMKMIQPDWLKSNGFHEIEADVNDTSLLLSGDHSIQQQLQEVREDDDDAEMTHSVAVNVYPATSRMPKLTIVVVDTIPVELKSSYMVWSWFIYVLSANLLLVIPLLWVAAWWSLRPIEALAKEVRELEEHNRELLNPATTRELTSLVRNLNRLLKSERERYDKYRTTLTDLTHSLKTPLXXLQXXLRSLRSEKMSVSDAEPVMLEQISRISQQIGYYLHRASMRGGTLLSRELHPVAPLLDNLTSALNKVYQRKGVNISLDISPEISFVGEQNDFVEVMGNVLDNACKYCLEFVEISARQTDEHLYIVVEDDGPGIPLSKREVIFDRGQRVDTLRPGQGVGLAVAREITEQYEGKIVAGESMLGGARMEVIFGRQHSAPKDE

Some of the results follow.

The results in this text go back to a collection of fitness landscapes (doi:10.1126/science.1257360).

The variants in the assay derive from B1. Kind of assay: enrichment ratio after two sorts for PhoP signalling (ratio (wild type AVST 3.29)); higher = more functional. To be noted: with PhoP (E. coli).
For EHVI, the enrichment ratio is no more than 0.25. Turning to ITTM, the enrichment ratio is no more than 0.25. On to HNAP, for which the enrichment ratio is no more than 0.25. In the case of TPPQ, the enrichment ratio was no more than 0.25. As for IVLE, the figure is no more than 0.25; as for GMVY, no more than 0.25; as for NADI, no more than 0.25. Turning to LNSG, the enrichment ratio is no more than 0.25. Then MNTL, with 3.28; and RTPN, with no more than 0.25. As for EEWP, the enrichment ratio was no more than 0.25. Consider GLLY, for which the enrichment ratio was no more than 0.25. For the variant VGDV, the enrichment ratio is no more than 0.25. As for RTPH, the figure is no more than 0.25. Then LDGF, with no more than 0.25; and MMHP, with no more than 0.25; and EAPS, with no more than 0.25. As for KFPI, the figure is no more than 0.25; as for HSQC, no more than 0.25. With NLSM, the enrichment ratio amounted to 0.258. As for WAVW, the figure is no more than 0.25; as for TTHQ, 26.2; as for LCAM, no more than 0.25. As for AWLG, the figure is no more than 0.25. On to EMEK, for which the enrichment ratio was no more than 0.25. As for EMEW, the enrichment ratio was no more than 0.25.

Take DIFC: the enrichment ratio was no more than 0.25.

In the case of WRVC, the enrichment ratio was no more than 0.25. With TLCL, the enrichment ratio amounted to 0.547. As to NMEK, the enrichment ratio was no more than 0.25. In the case of VEGD, the enrichment ratio is no more than 0.25. In the case of LSHQ, the enrichment ratio is no more than 0.25. As for DHQR, the figure is no more than 0.25. For DDTM, the enrichment ratio is no more than 0.25. As for FSTF, the figure is 0.466; as for SQWN, no more than 0.25.

For VLTS, the enrichment ratio is no more than 0.25. Consider PGIH, for which the enrichment ratio was no more than 0.25. On to KLNQ, for which the enrichment ratio was no more than 0.25.

For TYIL, the enrichment ratio is no more than 0.25. Consider WTLK, for which the enrichment ratio is no more than 0.25. Turning to NIPW, the enrichment ratio is no more than 0.25.

On to YWEI, for which the enrichment ratio is no more than 0.25. Then EESD, with no more than 0.25.

As for YSIN, the enrichment ratio is no more than 0.25.

On to DGPN, for which the enrichment ratio is no more than 0.25.

Consider LSIC, for which the enrichment ratio is no more than 0.25. For the variant IYSS, the enrichment ratio was no more than 0.25. As to MIAM, the enrichment ratio is 0.625. As for PIGI, the figure is no more than 0.25; as for ETLN, no more than 0.25. As for VVGP, the figure is no more than 0.25; as for IGAA, no more than 0.25; as for EQNT, no more than 0.25. As for VWEW, the figure is no more than 0.25.

Take YHDP: the enrichment ratio was no more than 0.25. As for FRLG, the figure is no more than 0.25; as for FMDA, no more than 0.25.

With KQNS, the enrichment ratio was no more than 0.25. Then TRHK, with no more than 0.25; and MRSH, with no more than 0.25; and QIKR, with no more than 0.25. Consider IRTK, for which the enrichment ratio was no more than 0.25. Then KHTG, with no more than 0.25. As for LKKP, the figure is no more than 0.25; as for IPVW, no more than 0.25. Then QPRV, with no more than 0.25.

In the case of VPCP, the enrichment ratio was no more than 0.25.

With NSAP, the enrichment ratio was no more than 0.25. With SVSN, the enrichment ratio was 6.15. For the variant TMPE, the enrichment ratio is no more than 0.25.

With DWSQ, the enrichment ratio is no more than 0.25. Then INYK, with no more than 0.25; and KEWW, with no more than 0.25; and QHID, with no more than 0.25.

As for SETY, the enrichment ratio came out at 15. For the variant WEEG, the enrichment ratio is no more than 0.25. As for EFRA, the figure is no more than 0.25; as for WLAR, no more than 0.25. As for ETYD, the figure is no more than 0.25; as for YTEI, no more than 0.25; as for QRFL, no more than 0.25. With PAEM, the enrichment ratio is no more than 0.25. Then GLMP, with no more than 0.25; and TGEF, with no more than 0.25. On to GHWG, for which the enrichment ratio is no more than 0.25.

As for QGIW, the enrichment ratio is no more than 0.25. Take AITP: the enrichment ratio is no more than 0.25. For HNRF, the enrichment ratio was no more than 0.25. As for QKHL, the figure is no more than 0.25. Then IKPE, with no more than 0.25; and FHFW, with no more than 0.25; and DGYN, with no more than 0.25. As for LFGE, the figure is no more than 0.25. With RMGA, the enrichment ratio was no more than 0.25. Turning to KKQF, the enrichment ratio is no more than 0.25. For the variant GNSY, the enrichment ratio worked out at 0.945. Take DYAK: the enrichment ratio was no more than 0.25. Consider PKFV, for which the enrichment ratio was no more than 0.25. Then ISAD, with no more than 0.25; and AMSI, with 5.07. Then NHPK, with no more than 0.25; and DIMM, with no more than 0.25.

Turning to PWLD, the enrichment ratio is no more than 0.25. As to MVSQ, the enrichment ratio was no more than 0.25. As for DIHR, the figure is no more than 0.25; as for SIGV, 8.2; as for VDTN, no more than 0.25. Then SSRL, with no more than 0.25; and ERNV, with no more than 0.25. As for NEPD, the figure is no more than 0.25; as for LSRP, no more than 0.25.

As to RSAN, the enrichment ratio was no more than 0.25.

In the case of RRWS, the enrichment ratio was no more than 0.25.

In the case of YFMM, the enrichment ratio is no more than 0.25. As for VPTQ, the figure is no more than 0.25; as for NNQC, no more than 0.25. On to QNIT, for which the enrichment ratio is no more than 0.25. On to VMDW, for which the enrichment ratio was no more than 0.25. For QKEH, the enrichment ratio was 3.23. With QKSA, the enrichment ratio is no more than 0.25. For the variant SYQW, the enrichment ratio is no more than 0.25. In the case of HHQG, the enrichment ratio is no more than 0.25. Regarding HEYK, the enrichment ratio is no more than 0.25. As for AKTV, the figure is 5.31. As for VWLI, the figure is no more than 0.25; as for FGRD, no more than 0.25; as for VCDS, no more than 0.25.

Regarding VRKH, the enrichment ratio was no more than 0.25.

On to KMTH, for which the enrichment ratio was no more than 0.25. For PNEF, the enrichment ratio is no more than 0.25. Then PFQM, with no more than 0.25; and ILAK, with no more than 0.25; and LCNT, with no more than 0.25. Take QLVG: the enrichment ratio was no more than 0.25. Turning to SVHF, the enrichment ratio is no more than 0.25.

Take SGDY: the enrichment ratio is no more than 0.25. As for SDHA, the figure is no more than 0.25; as for PDTD, no more than 0.25; as for ERCD, no more than 0.25. As for RDPE, the figure is no more than 0.25. On to ANTW, for which the enrichment ratio is no more than 0.25. As for IILP, the figure is no more than 0.25; as for LVQS, no more than 0.25. In the case of IHKS, the enrichment ratio is no more than 0.25. As for PACD, the enrichment ratio was no more than 0.25. As for KSPD, the enrichment ratio was no more than 0.25. As for DTAN, the figure is no more than 0.25; as for KGER, no more than 0.25; as for IIWW, no more than 0.25. As for MVKK, the figure is no more than 0.25; as for DVPL, no more than 0.25; as for NSNL, no more than 0.25.
